Reference: the supplement of paper PMC12067093, “Discovery and optimisation of a covalent ligand for TRIM25 and its application to targeted protein ubiquitination” (Chemical Science, 2025)
Of roughly 21,000 targets only a part is listed; those with the largest changes were picked by preference.

compound: CC1Cc2ccccc2N1C(=O)C1CCCN(C1)C(=O)CCl (mixture of isomers) [TRIM25 ligand 11 (diastereomer mixture)]; experiment: probe-labelled cysteine peptide fold change vs DMSO (competition) (log2 fold change); higher = less target engagement (more negative = stronger competition); details: 10 µM; THP-1; incubation time: 4 h
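Further: competitive chemoproteomic profiling in live THP-1 cells with an iodoacetamide desthiobiotin (IA-DTB) probe, comparing probe-labelled peptide intensities in compound-treated cells against DMSO-treated controls.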

Sequence of UniProt Q7Z569 (Q7Z569 whole entry, looked up): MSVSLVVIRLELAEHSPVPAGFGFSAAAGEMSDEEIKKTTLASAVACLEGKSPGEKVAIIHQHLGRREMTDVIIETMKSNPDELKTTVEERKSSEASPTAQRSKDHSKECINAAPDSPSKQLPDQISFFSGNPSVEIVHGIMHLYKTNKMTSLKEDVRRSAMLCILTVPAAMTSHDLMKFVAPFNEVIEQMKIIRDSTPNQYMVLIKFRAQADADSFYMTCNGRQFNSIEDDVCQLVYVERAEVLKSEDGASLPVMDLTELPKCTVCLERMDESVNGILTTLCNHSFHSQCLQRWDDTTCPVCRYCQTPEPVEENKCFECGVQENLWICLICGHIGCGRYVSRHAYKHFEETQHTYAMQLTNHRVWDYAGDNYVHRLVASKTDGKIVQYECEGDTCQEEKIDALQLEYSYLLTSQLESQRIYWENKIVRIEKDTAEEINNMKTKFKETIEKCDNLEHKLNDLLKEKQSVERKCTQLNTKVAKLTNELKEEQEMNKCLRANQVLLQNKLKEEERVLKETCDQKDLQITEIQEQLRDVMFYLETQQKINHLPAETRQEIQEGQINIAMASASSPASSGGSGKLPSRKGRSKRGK
Sequence of UniProt Q9NPF2 (Q9NPF2 whole entry, looked up): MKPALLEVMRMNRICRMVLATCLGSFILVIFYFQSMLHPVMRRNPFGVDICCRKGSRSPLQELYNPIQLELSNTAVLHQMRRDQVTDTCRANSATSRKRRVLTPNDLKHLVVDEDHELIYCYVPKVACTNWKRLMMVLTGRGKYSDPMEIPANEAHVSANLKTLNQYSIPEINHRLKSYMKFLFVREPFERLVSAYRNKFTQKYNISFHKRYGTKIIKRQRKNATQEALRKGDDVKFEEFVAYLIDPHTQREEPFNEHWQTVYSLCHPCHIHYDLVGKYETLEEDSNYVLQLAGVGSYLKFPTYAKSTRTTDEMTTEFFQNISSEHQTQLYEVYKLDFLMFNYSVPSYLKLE
Sequence of UniProt Q9H9E3 (Q9H9E3 whole entry, looked up): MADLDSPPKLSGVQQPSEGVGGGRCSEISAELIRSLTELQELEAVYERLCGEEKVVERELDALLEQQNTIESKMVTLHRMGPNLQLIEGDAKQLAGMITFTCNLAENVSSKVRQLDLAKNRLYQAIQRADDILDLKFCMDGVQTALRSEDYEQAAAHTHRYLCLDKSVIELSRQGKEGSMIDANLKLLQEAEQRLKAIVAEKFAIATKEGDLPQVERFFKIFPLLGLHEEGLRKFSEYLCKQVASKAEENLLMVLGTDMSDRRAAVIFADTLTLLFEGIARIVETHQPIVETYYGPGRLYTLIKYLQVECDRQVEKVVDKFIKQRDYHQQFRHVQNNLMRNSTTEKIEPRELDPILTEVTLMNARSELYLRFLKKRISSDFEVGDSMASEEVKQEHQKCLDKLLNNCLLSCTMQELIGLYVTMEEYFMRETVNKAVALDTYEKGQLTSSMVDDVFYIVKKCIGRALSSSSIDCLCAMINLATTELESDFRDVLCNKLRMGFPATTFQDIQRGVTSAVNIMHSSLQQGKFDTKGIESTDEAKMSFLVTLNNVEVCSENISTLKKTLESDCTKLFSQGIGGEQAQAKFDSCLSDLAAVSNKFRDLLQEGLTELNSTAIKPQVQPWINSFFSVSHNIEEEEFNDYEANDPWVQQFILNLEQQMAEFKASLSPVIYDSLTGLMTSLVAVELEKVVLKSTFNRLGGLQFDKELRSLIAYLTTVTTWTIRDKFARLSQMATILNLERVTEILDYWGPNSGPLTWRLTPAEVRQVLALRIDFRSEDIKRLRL
Sequence of UniProt P21127 (P21127 whole entry, looked up): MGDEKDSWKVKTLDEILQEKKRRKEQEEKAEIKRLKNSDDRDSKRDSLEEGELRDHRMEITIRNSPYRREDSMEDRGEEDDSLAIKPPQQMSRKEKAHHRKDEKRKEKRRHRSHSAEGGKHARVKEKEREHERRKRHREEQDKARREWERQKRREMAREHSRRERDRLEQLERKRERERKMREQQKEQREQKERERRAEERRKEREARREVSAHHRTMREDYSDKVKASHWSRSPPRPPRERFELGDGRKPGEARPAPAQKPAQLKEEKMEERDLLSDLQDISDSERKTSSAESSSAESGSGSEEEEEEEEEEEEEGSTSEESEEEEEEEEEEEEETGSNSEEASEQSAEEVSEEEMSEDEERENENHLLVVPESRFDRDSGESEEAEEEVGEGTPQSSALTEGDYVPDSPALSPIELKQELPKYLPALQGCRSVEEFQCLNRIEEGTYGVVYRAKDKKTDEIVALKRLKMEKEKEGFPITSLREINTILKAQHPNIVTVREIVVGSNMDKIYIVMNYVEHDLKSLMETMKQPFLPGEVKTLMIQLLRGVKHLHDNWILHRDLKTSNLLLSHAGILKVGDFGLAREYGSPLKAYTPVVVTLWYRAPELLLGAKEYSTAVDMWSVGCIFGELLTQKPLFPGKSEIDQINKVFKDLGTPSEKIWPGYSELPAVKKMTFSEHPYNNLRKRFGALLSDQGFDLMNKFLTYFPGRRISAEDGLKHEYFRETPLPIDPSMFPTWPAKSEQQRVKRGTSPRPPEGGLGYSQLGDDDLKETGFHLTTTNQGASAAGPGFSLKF
Sequence of UniProt O75122 (O75122 whole entry, looked up): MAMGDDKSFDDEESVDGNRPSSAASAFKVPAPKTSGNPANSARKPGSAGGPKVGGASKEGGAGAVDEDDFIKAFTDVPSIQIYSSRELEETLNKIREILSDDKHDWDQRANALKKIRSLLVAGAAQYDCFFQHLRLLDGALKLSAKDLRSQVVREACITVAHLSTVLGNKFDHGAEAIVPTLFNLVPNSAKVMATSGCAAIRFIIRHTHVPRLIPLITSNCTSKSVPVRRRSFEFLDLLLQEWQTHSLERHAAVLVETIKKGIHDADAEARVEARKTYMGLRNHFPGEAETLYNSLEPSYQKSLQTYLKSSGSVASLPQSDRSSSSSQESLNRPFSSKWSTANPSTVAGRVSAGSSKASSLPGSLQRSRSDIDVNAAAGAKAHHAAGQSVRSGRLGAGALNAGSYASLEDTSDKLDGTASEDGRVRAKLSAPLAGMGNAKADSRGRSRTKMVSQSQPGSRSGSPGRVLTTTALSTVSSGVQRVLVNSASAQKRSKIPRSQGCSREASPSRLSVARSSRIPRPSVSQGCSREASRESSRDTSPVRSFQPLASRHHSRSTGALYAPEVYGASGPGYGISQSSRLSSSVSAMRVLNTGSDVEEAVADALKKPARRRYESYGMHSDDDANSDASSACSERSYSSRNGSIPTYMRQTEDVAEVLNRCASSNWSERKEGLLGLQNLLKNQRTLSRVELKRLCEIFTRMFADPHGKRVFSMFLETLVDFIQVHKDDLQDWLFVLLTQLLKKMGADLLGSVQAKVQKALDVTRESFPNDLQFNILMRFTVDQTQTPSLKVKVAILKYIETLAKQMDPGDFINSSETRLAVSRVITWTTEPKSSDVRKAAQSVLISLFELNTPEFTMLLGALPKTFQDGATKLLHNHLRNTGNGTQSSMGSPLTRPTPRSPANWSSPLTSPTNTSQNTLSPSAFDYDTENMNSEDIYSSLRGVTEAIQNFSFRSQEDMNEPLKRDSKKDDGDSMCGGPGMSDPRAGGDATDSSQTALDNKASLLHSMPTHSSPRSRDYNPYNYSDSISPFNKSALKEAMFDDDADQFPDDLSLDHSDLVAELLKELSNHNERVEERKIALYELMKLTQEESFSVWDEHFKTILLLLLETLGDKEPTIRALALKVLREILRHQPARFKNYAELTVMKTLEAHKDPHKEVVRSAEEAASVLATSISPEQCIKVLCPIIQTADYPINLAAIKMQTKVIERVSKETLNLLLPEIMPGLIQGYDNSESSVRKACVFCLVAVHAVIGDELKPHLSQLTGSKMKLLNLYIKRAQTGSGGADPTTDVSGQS
Sequence of UniProt P23528 (P23528 whole entry, looked up): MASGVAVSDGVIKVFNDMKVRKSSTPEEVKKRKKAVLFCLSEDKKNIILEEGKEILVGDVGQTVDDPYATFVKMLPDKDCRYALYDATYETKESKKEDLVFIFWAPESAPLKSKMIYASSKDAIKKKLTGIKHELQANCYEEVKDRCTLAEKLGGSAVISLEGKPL
Sequence of UniProt Q69YH5 (Q69YH5 whole entry, looked up): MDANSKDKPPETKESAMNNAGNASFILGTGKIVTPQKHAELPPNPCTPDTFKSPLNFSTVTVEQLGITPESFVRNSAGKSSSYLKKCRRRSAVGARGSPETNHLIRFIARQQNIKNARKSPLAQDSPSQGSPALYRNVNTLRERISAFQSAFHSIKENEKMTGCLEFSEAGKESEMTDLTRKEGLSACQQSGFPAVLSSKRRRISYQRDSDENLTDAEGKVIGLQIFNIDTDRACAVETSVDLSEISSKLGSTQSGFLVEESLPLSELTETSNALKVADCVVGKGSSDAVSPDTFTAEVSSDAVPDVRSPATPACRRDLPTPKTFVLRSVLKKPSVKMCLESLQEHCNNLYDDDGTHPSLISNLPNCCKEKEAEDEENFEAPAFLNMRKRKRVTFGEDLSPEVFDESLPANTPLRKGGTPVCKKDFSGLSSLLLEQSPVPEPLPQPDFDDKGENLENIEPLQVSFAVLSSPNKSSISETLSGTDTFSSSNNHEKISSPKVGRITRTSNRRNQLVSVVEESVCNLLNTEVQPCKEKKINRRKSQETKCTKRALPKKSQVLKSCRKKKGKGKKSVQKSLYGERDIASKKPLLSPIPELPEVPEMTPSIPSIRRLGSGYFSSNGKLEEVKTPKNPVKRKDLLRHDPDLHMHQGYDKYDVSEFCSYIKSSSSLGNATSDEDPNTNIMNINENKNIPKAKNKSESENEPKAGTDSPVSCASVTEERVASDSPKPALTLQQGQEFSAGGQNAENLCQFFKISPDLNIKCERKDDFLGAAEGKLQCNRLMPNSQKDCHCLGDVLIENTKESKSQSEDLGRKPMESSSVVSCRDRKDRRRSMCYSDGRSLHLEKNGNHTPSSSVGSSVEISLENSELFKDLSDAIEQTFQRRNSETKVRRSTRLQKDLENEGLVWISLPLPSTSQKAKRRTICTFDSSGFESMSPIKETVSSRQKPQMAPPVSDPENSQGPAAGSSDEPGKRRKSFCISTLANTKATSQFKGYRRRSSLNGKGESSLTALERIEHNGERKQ

Row | Target | probe-labelled cysteine peptide fold change
1 | BRAP_Q7Z569_221_AQADADSFYMTCNGR (UniProt Q7Z569) | 0.184
2 | CCDC93_Q567U6_99_CPHQLEPHQIQGMDFIHIFPVVQWLVK (UniProt Q567U6) | 0.00408
3 | CAPZB_P47756_206_QMEKDETVSDCSPHIANIGR (UniProt P47756) | -0.856
4 | CDCA2_Q69YH5_714_AGTDSPVSCASVTEER (UniProt Q69YH5) | -0.0611
5 | C19orf54_Q5BKX5_186_LAQEVLGCQAK (UniProt Q5BKX5) | 0.0315
6 | CCT8_P50990_148_AHEILPNLVCCSAK (UniProt P50990) | 0.0907
7 | COPB1_P53618_102_LLHEMILVCDAYRK (UniProt P53618) | -0.45
8 | CDK11B_P21127_440_SVEEFQCLNR (UniProt P21127) | -0.0678
9 | CACUL1_Q86Y37_362_AGDELAYNSSSACASSR (UniProt Q86Y37) | -0.0702
10 | COMT_P21964_207_DRYLPDTLLLEECGLLR (UniProt P21964) | -0.048
11 | CLTC_Q00610_436_YESLELCR (UniProt Q00610) | 0.0725
12 | CEPT1_Q9Y6K0_30_CGDSHPESPVGFGHMSTTGCVLNK (UniProt Q9Y6K0) | 0.062
13 | COPB1_P53618_248_CIYNLLQSSSPAVKYEAAGTLVTLSSAPTAIK (UniProt P53618) | -0.337
14 | CHD1L_Q86WJ1_123_FAPGLSCVTYAGDKEER (UniProt Q86WJ1) | -0.0411
15 | CENPN_Q96H22_325_SLAPAGIADAPLSPLLTCIPNKR (UniProt Q96H22) | -0.357
16 | COPS7B_Q9H9Q2_240_ATASSSAQEMEQQLAERECPPHAEQR (UniProt Q9H9Q2) | -0.464
17 | CFL1_P23528_80_MLPDKDCR (UniProt P23528) | -0.669
18 | CASP6_P55212_68_GTCADRDNLTR (UniProt P55212) | -0.0456

Row | Target | probe-labelled cysteine peptide fold change
19 | CNOT1_A5YKK6_219_CPVVLAPLLYPEKR (UniProt A5YKK6) | -0.629
20 | CHST11_Q9NPF2_89_DQVTDTCR (UniProt Q9NPF2) | 0.0268
21 | COPA_P53621_693_LGEVALLQGNHQIVEMCYQR (UniProt P53621) | 0.343
22 | CCT6A_P40227_406_NAIDDGCVVPGAGAVEVAMAEALIK (UniProt P40227) | -0.00478
23 | COMP_P49747_520_VVDKIDVCPENAEVTLTDFR (UniProt P49747) | 0.221
24 | COG4_Q9H9E3_240_FSEYLCK (UniProt Q9H9E3) | -0.00443
25 | BTF3_P20290_22_GGCPGGEATLSQPPPR (UniProt P20290) | -0.0722
26 | CBX5_P45973_133_IIGATDSCGDLMFLMK (UniProt P45973) | -0.0556
27 | CAST_P20810-2_228_YRELLAKPIGPDDAIDALSSDFTCGSPTAAGK (UniProt P20810) | -0.236
28 | CNST_Q6PJW8_439_SKTEPLISPGCDR (UniProt Q6PJW8) | 0.0228
29 | CCDC186_Q7Z3E2_80_IEAQENYIPDHGGGEDSCAK (UniProt Q7Z3E2) | 0.0236
30 | CARD6_Q9BX69_872_AVGKPWPQQACTR (UniProt Q9BX69) | -0.0903
31 | CAD_P27708_736_NSVTGGTAAFEPSVDYCVVK (UniProt P27708) | 0.124
32 | CLASP2_O75122_528_IPRPSVSQGCSR (UniProt O75122) | -0.0975
33 | CDC34_P49427_93_MWHPNIYETGDVCISILHPPVDDPQSGELPSER (UniProt P49427) | -0.168
34 | BPTF_Q12830_940_AVQMCSKPR (UniProt Q12830) | -0.232
35 | COPA_P53621_41_MCTLIDKFDEHDGPVR (UniProt P53621) | 0.0108
36 | CHEK2_O96017_108_LWALQDGFANLECVNDNYWFGR (UniProt O96017) | 0.00573

same assay, conditions: 50 µM; THP-1; incubation time: 4 h

Row | Target | probe-labelled cysteine peptide fold change
37 | BRAP_Q7Z569_221_AQADADSFYMTCNGR (UniProt Q7Z569) | 0.121
38 | CDCA2_Q69YH5_714_AGTDSPVSCASVTEER (UniProt Q69YH5) | -0.104
39 | C19orf54_Q5BKX5_186_LAQEVLGCQAK (UniProt Q5BKX5) | -0.124
40 | COPB1_P53618_102_LLHEMILVCDAYRK (UniProt P53618) | -0.0937
41 | CAMK1_Q14012_267_RFTCEQALQHPWIAGDTALDK (UniProt Q14012) | -0.103
42 | CDK11B_P21127_440_SVEEFQCLNR (UniProt P21127) | 0.0296
43 | CACUL1_Q86Y37_362_AGDELAYNSSSACASSR (UniProt Q86Y37) | -0.318
44 | CEPT1_Q9Y6K0_30_CGDSHPESPVGFGHMSTTGCVLNK (UniProt Q9Y6K0) | -0.722
45 | COPS7B_Q9H9Q2_240_ATASSSAQEMEQQLAERECPPHAEQR (UniProt Q9H9Q2) | -0.315
46 | CFL1_P23528_80_MLPDKDCR (UniProt P23528) | -0.345
47 | CNOT1_A5YKK6_219_CPVVLAPLLYPEKR (UniProt A5YKK6) | -0.193
48 | CHST11_Q9NPF2_89_DQVTDTCR (UniProt Q9NPF2) | -0.16
49 | COPA_P53621_693_LGEVALLQGNHQIVEMCYQR (UniProt P53621) | 0.186
50 | COG4_Q9H9E3_240_FSEYLCK (UniProt Q9H9E3) | 0.156
51 | BTF3_P20290_22_GGCPGGEATLSQPPPR (UniProt P20290) | -0.294
52 | CLASP2_O75122_528_IPRPSVSQGCSR (UniProt O75122) | -0.0717
53 | CDC34_P49427_93_MWHPNIYETGDVCISILHPPVDDPQSGELPSER (UniProt P49427) | 0.0184
54 | BPTF_Q12830_940_AVQMCSKPR (UniProt Q12830) | -0.0271
